Results are given in words; binding and its absence hold for the method and conditions named. In cells and extracts the contact can be indirect. Some results given as binding are weak or reduced against the parent protein; the word gives no strength. Where a sequence is shown, tags or fusion partners need not be part of it.
Biological target: T1, ID2-FLAG-Myc (UniProt Q02363)
T1 sequence: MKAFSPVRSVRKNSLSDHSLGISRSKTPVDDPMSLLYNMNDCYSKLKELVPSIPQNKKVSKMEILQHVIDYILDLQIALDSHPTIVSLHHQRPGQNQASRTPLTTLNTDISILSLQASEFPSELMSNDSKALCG
Test: co-IP; HEK293AD cells cotransfected with ID2-FLAG-Myc and F-78 constructs; lysed by sonication in 20 mM Tris-HCl pH 7.5, 150 mM NaCl, 2 mM EDTA, 0.1% Triton X-100; precipitated with anti-Myc (9E10) or IgG and protein A beads; blot with anti-FLAG (M2)

Amino acid sequences for entries named in this document (tags omitted). A change or cut given only in a name is not applied to a line headed by its entry. Chains listed by the source or under a name are the forms on record and can include a tag or linker. Residues count along the entry.
FLAG-tagged wild type GRP78 [F-78 (WT)] (P11021, residues 19-654): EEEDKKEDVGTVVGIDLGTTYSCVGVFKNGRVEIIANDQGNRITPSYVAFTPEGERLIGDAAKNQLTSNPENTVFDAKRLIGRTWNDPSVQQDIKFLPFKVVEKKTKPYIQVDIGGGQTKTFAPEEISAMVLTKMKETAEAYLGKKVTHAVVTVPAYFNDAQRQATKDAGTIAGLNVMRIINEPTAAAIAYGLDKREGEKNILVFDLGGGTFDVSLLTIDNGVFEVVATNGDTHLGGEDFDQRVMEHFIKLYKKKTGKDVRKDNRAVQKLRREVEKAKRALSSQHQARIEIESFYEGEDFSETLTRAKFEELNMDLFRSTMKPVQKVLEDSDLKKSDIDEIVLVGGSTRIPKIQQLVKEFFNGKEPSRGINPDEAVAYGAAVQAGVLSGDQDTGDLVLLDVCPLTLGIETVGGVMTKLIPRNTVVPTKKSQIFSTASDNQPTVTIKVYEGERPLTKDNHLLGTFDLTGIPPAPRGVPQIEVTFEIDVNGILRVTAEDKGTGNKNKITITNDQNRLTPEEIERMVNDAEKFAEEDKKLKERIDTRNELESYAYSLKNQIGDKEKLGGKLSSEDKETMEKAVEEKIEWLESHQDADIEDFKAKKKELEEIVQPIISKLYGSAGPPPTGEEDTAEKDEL
FLAG-GRP78 mutant G227D (ATP binding deficient) (P11021, form named): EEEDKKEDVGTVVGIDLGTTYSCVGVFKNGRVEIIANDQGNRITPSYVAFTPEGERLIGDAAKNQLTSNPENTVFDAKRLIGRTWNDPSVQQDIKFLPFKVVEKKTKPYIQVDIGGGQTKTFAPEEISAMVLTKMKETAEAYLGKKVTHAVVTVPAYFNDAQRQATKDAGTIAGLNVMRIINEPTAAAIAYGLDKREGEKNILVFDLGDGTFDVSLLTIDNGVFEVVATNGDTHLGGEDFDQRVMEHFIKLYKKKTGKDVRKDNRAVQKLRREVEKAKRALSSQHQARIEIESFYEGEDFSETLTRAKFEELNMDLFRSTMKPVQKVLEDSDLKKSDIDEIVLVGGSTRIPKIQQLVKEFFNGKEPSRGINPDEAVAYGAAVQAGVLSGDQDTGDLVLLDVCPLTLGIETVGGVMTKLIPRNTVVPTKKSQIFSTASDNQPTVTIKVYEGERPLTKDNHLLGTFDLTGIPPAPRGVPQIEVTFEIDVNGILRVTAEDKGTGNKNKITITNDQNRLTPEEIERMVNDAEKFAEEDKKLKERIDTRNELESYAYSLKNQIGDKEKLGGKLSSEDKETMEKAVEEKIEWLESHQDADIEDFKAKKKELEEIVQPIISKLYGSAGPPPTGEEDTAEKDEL
FLAG-GRP78 mutant R197H (cochaperone binding deficient) (P11021, form named): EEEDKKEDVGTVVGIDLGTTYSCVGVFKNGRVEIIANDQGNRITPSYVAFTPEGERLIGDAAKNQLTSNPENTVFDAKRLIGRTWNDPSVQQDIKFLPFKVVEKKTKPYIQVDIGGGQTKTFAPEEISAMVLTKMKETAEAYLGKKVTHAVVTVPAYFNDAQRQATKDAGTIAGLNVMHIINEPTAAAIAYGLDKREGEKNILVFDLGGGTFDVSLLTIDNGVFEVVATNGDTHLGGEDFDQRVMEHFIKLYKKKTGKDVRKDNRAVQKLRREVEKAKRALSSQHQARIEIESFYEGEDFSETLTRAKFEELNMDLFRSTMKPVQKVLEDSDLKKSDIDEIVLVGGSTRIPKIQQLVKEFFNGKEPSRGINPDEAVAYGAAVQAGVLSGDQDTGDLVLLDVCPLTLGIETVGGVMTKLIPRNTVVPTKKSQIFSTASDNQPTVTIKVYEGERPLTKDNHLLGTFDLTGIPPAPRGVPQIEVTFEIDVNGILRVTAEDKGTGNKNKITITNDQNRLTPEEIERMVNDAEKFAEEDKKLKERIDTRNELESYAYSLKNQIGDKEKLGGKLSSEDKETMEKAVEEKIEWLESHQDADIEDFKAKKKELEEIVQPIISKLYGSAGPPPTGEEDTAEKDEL
FLAG-GRP78 mutant with the nuclear localization signal mutated [F78 (NLS^Mut)] (P11021, form named): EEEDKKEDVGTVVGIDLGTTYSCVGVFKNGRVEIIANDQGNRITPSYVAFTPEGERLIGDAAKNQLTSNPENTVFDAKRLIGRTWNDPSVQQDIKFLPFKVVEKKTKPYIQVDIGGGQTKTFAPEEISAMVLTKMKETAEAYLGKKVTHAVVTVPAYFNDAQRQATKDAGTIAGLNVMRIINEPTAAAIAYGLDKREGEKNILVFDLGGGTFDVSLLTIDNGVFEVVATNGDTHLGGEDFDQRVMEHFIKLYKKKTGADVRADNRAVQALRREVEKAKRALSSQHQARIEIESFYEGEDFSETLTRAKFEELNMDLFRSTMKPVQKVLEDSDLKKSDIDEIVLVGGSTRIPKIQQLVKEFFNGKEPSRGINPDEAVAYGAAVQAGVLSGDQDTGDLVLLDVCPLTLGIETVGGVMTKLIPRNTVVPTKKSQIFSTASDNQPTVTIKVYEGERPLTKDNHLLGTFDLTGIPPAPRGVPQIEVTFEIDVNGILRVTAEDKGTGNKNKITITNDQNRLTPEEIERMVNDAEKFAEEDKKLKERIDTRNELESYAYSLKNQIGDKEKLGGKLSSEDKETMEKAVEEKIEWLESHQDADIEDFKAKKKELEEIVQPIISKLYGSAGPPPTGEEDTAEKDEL
FLAG-GRP78 mutant T453D (substrate binding deficient) (P11021, form named): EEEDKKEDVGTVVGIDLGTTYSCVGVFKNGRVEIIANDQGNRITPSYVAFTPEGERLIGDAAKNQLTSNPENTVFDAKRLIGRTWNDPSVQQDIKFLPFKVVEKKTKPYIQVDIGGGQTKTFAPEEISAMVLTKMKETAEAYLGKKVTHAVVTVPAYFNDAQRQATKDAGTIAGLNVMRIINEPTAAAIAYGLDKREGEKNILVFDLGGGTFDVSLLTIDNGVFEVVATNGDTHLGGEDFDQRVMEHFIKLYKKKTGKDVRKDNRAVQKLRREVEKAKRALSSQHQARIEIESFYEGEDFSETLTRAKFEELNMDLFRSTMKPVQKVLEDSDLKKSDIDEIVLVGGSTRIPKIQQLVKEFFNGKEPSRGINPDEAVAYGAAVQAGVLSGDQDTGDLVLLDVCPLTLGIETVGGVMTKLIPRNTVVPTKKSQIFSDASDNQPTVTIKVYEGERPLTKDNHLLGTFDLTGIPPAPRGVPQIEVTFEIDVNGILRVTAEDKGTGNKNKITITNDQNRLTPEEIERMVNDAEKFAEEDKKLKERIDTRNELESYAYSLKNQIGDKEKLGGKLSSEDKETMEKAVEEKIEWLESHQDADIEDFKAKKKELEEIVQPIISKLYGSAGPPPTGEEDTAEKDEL

Row | binding | Substance
1 | no binding | FLAG-GRP78 mutant G227D (ATP binding deficient) (from UniProt P11021 19-654)
2 | binds | FLAG-GRP78 mutant R197H (cochaperone binding deficient) (from UniProt P11021 19-654)

Further lines, the substance ahead of its results:

Row | Substance | binding
3 | FLAG-GRP78 mutant with the nuclear localization signal mutated [F78 (NLS^Mut)] (from UniProt P11021 19-654) | binds
4 | FLAG-tagged wild type GRP78 [F-78 (WT)] (from UniProt P11021 19-654) | binds
5 | FLAG-GRP78 mutant T453D (substrate binding deficient) (from UniProt P11021 19-654) | no binding

Source: paper PMC11997380
